The text below walks through data of the supplement of paper PMC9588766.

SMILES strings stand for the structures. Structures can show the parent of a compound that is named as a salt. ± gives the standard deviation of the averaged measurements. Whole data set: some 2,000 compounds, median “cell viability relative to DMSO control (compound alone)” near 0.98, cut for the lowest 2% near 0.23. The list shows a part of the results.

This assay relates to PDC-DUC18828. Kind of assay: cell viability relative to DMSO control (compound alone) (fraction); PDC-DUC18828 is a patient-derived cholangiocarcinoma cell line; higher = less growth inhibition. The conditions noted are these: 1 µM; 72 h. How it is done:
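Selleck Bioactive library screen in the patient-derived FGFR2-G3BP2 fusion-positive ICC cell line PDC-DUC18828 (500 cells/well). Each compound was tested at 1 uM alone, in triplicate, for 72 h. Viability was read by CellTiter-Glo and normalised to plate DMSO controls.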
In the case of `C=C1c2cccc(O)c2C(=O)C2=C(O)[C@]3(O)C(=O)C(C(N)=O)=C(O)[C@@H](N(C)C)[C@@H]3[C@@H](O)[C@H]12` [Methacycline HCl], the cell viability stood at 1.05 ± 0.061. In the case of `Cn1c(=O)cc(N2CCC[C@@H](N)C2)n(Cc2cc(F)ccc2C#N)c1=O` [Trelagliptin] it was 0.927 ± 0.031. Consider `O=C(Nc1ccc(OC(F)(F)F)cc1)c1sccc1NCc1ccnc2ccccc12`, for which the cell viability came to 0.948 ± 0.027.

`COc1cc(/C=C/C(=O)N2CCN(CC(=O)N3CCCC3)CC2)cc(OC)c1OC` [Cinepazide maleate] registered a cell viability of 0.96 ± 0.066. Compound `CCCNC(C)C(=O)Nc1ccccc1C` (centres undefined) [Prilocaine] came in with a cell viability of 0.961 ± 0.042. In the case of `CC(COc1ccccc1)N(CCCl)Cc1ccccc1` (centres undefined) [Phenoxybenzamine HCl] it was 0.938 ± 0.02; in that of `Nc1ncn([C@@H]2O[C@H](CO)[C@@H](O)[C@H]2O)c(=O)n1` [Azacitidine], 0.976 ± 0.031. In the case of `CC(=O)Nc1cccc2c1c(Sc1ccc(Cl)cc1)c(C)n2CC(=O)O`, the cell viability worked out at 1.07 ± 0.036. In turn, `Cc1c(-c2ccnn2C)cc(C(=O)NCc2ccc(S(C)(=O)=O)cn2)c(=O)n1-c1cccc(C(F)(F)F)c1` [Alvelestat (AZD9668)] came in with a cell viability of 1.03 ± 0.025.

The compound `O=C(NC1CCN(CCCCC2(C(=O)NCC(F)(F)F)c3ccccc3-c3ccccc32)CC1)c1ccccc1-c1ccc(C(F)(F)F)cc1` [Lomitapide Mesylate] displayed a cell viability of 0.915 ± 0.069. In turn, `COc1ccc(C(=O)CC2(O)C(=O)Nc3c(Cl)ccc(Cl)c32)cc1` (centres undefined) registered a cell viability of 0.775 ± 0.029. The compound `CC(C)(C)Cn1c(N)nc2ccc(-c3[nH]c(C(C)(C)C)nc3-c3ccc(F)cc3)nc21` had a cell viability of 0.936 ± 0.039. Next, `CCCN[C@H]1CCc2nc(N)sc2C1` [Pramipexole]: 0.975 ± 0.022; `CCOC(=O)c1ccc(OC(=O)CCCCCNC(=N)N)cc1` [Gabexate Mesylate]: 1.05 ± 0.054; `COc1cccc(-c2ccc(NC(=O)C3=C(C(=O)O)CCC3)c(F)c2)c1` [Vidofludimus]: 1.06 ± 0.069. Next, `Clc1cccc(-c2nnnn2Cc2cccnc2)c1Cl`: 0.927 ± 0.025; `C/C=C1/[C@H](O[C@@H]2O[C@H](CO)[C@@H](O)[C@H](O)[C@H]2O)OC=C(C(=O)OC)[C@H]1CC(=O)OCCc1ccc(O)c(O)c1` [Oleuropein]: 1.01 ± 0.05. In the case of `Cc1cc(=O)oc2cc(O)ccc12` [4-Methylumbelliferone (4-MU)] it was 1.06 ± 0.011; in that of `CC(C)C[C@@H](C=O)NC(=O)[C@H](CC(C)C)NC(=O)[C@H](CC(C)C)NC(=O)OCc1ccccc1`, 0.0214 ± 0.002; in that of `COC1=CC(c2cc3ccccc3[nH]2)=N/C1=C\c1[nH]c(C)cc1C` [Obatoclax Mesylate (GX15-070)], 0.253 ± 0.022.

`N=C(N)NC(=N)N1CCOCC1` [Moroxydine HCl]: the cell viability is 1.02 ± 0.09.

`CC(=O)Oc1cccc2c1C(=O)c1c(OC(C)=O)cc(C(=O)O)cc1C2=O` [Diacerein] returned a cell viability of 0.962 ± 0.041.

On to `CCN(CC)Cc1ccc2cc(COC(=O)Nc3ccc(C(=O)NO)cc3)ccc2c1` [Givinostat (ITF2357)], for which the cell viability is 0.54 ± 0.033.

`CC(C)(C#N)c1ccc(N2C(=O)OCc3cnc4ccc(-c5cnc6ccccc6c5)cc4c32)cc1` gave a cell viability of 0.931 ± 0.064. In the case of `COc1ccc(NS(=O)(=O)c2ccc(N)cc2)nn1` [Sulfamethoxypyridazine] it was 1.02 ± 0.026. `Nc1ccc(C(=O)NCC(=O)O)cc1` [4-Aminohippuric Acid] showed a cell viability of 0.932 ± 0.031.

Compound `CCCC(=O)O[C@]1(C(=O)COC(C)=O)CC[C@H]2[C@@H]3C[C@H](F)C4=CC(=O)C=C[C@]4(C)[C@@]3(F)[C@@H](O)C[C@@]21C` [Difluprednate] had a cell viability of 0.956 ± 0.048.

`OC[C@H]1O[C@@H](Oc2ccc(O)cc2)[C@H](O)[C@@H](O)[C@@H]1O` [Arbutin]: the cell viability is 0.955 ± 0.052. Next, `O=C(c1ccc(C(=O)N2CCC(N3CCCC3)CC2)c(Nc2ccccc2)c1)N1CCC(N2CCCC2)CC1`: 0.989 ± 0.046; `NC(=O)c1cnc2[nH]ccc2c1N[C@@H]1[C@@H]2CC3C[C@H]1C[C@@](O)(C3)C2`: 0.832 ± 0.026. Consider `CCN1CCN(C(=O)N[C@@H](C(=O)N[C@@H]2C(=O)N3[C@@H]2SC(C)(C)[C@@H]3C(=O)O)c2ccccc2)C(=O)C1=O` [Piperacillin Sodium], for which the cell viability stood at 1.06 ± 0.04. In the case of `CN(NC(=O)CC(=O)NN(C)C(=S)c1ccccc1)C(=S)c1ccccc1` [Elesclomol (STA-4783)] it was 0.0677 ± 0.026. Compound `CO[C@@H]1[C@@H](OC(N)=O)[C@@H](O)[C@H](Oc2ccc3c(O)c(NC(=O)c4ccc(O)c(CC=C(C)C)c4)c(=O)oc3c2C)OC1(C)C` [Novobiocin Sodium] came in with a cell viability of 0.975 ± 0.012.

The compound `CC(=O)OCOC(=O)CN(CC(=O)OCOC(C)=O)c1ccccc1OCCOc1ccccc1N(CC(=O)OCOC(C)=O)CC(=O)OCOC(C)=O` returned a cell viability of 0.87 ± 0.075. Next, `O=C(O[C@H]1CN2CCC1CC2)N1CCc2ccccc2[C@@H]1c1ccccc1` [Solifenacin succinate]: 0.97 ± 0.058; `NC(=O)N/N=C/c1ccc([N+](=O)[O-])o1` [Nitrofural]: 0.986 ± 0.045; `CC(C)C[C@H](NC(=O)[C@H](CCc1ccccc1)NC(=O)CN1CCOCC1)C(=O)N[C@@H](Cc1ccccc1)C(=O)N[C@@H](CC(C)C)C(=O)[C@@]1(C)CO1` [Carfilzomib (PR-171)]: 0.0263 ± 0.0069. In turn, `O=S(=O)(c1ccccc1)c1cnc2c(N3CCNCC3)cccc2c1` came in with a cell viability of 1.03 ± 0.02. In the case of `CN(C)CCC[C@@]1(c2ccc(F)cc2)OCc2cc(C#N)ccc21` [Escitalopram Oxalate] it was 1.01 ± 0.074; in that of `CCCC(=O)Nc1ncnc2c1ncn2[C@@H]1O[C@@H]2COP(=O)(O)O[C@H]2[C@H]1OC(=O)CCC` [Dibutyryl-cAMP (Bucladesine)], 0.942 ± 0.042; in that of `CC1=CC(=O)NS(=O)(=O)O1` [Acesulfame Potassium], 0.971 ± 0.034. In the case of `CN1CCCC(n2nc(Cc3ccc(Cl)cc3)c3ccccc3c2=O)CC1` (centres undefined) [Azelastine HCl] it was 1.07 ± 0.054. The compound `Cc1cc([N+](=O)[O-])ccc1NS(=O)(=O)c1cc(Cl)ccc1Cl` registered a cell viability of 0.903 ± 0.084. The compound `COc1ccc(COc2ccc(Cc3cnc(N)nc3N)cc2OC)cc1` had a cell viability of 0.99 ± 0.017. For `O=C(O)CCNc1cc(N2CCc3ccccc3CC2)nc(-c2ccccn2)n1`, the cell viability is 0.97 ± 0.012. In the case of `O=C(N/N=C/c1ccc(O)c(O)c1)c1cc2ccccc2cc1O` [Dynasore] it was 1 ± 0.039.

`C=CC[C@@H]1/C=C(\C)C[C@H](C)C[C@H](OC)[C@H]2O[C@@](O)(C(=O)C(=O)N3CCCC[C@H]3C(=O)O[C@H](/C(C)=C/[C@@H]3CC[C@@H](O)[C@H](OC)C3)[C@H](C)[C@@H](O)CC1=O)[C@H](C)C[C@@H]2OC` [Tacrolimus (FK506)] gave a cell viability of 0.901 ± 0.017. In the case of `COc1ccc2[nH]cc(CCNC(C)=O)c2c1` [Melatonin] it was 1 ± 0.036. In turn, `O=C([O-])c1ccccc1O.[Na+]` [Sodium salicylate] registered a cell viability of 0.985 ± 0.037.

`Cc1ccc(C(=O)c2cc(O)c(O)c([N+](=O)[O-])c2)cc1` [Tolcapone] showed a cell viability of 0.981 ± 0.051. In turn, `CCN(Cc1ccncc1)C(=O)C(CO)c1ccccc1` (centres undefined) [Tropicamide] gave a cell viability of 1.03 ± 0.013. Compound `CC(=O)O/N=C1\C(=O)N(Cc2cc(Cl)ccc2Cl)c2ccc(Cl)cc21` registered a cell viability of 0.949 ± 0.022. Compound `O=C(Cc1cccc(OC(F)(F)F)c1)Nc1ccc(CCCCc2nnc(NC(=O)Cc3ccccn3)s2)nn1` yielded a cell viability of 0.897 ± 0.015.

`Cc1ncc([N+](=O)[O-])n1CCO` [Metronidazole] yielded a cell viability of 0.987 ± 0.05. In the case of `CCN(CC)CC#CCOC(=O)C(O)(c1ccccc1)C1CCCCC1` (centres undefined) [Oxybutynin chloride], the cell viability was 0.932 ± 0.029. In the case of `CCN(CC)CC#CCOC(=O)C(O)(c1ccccc1)C1CCCCC1` (centres undefined) [Oxybutynin] it was 1.04 ± 0.014; in that of `COc1ccc(-c2oc3c(CC=C(C)C)c(O[C@@H]4O[C@H](CO)[C@@H](O)[C@H](O)[C@H]4O)cc(O)c3c(=O)c2O[C@@H]2O[C@@H](C)[C@H](O)[C@@H](O)[C@H]2O)cc1` [Icariin], 0.924 ± 0.033. Next, `CCn1cc(C(=O)O)c(=O)c2ccc(C)nc21` [Nalidixic acid]: 0.968 ± 0.011; `COc1ccc2cc(CCC(C)=O)ccc2c1` [Nabumetone]: 0.989 ± 0.056; `O=C(CCCN1CC=C(n2c(=O)[nH]c3ccccc32)CC1)c1ccc(F)cc1` [Droperidol]: 1.09 ± 0.037. On to `CCO[C@@H]1OC(=O)C[C@@H]1NC(=O)[C@@H]1CCCN1C(=O)[C@@H](NC(=O)c1ccc(N)c(Cl)c1)C(C)(C)C`, for which the cell viability turned out to be 1.09 ± 0.016.

The compound `O=C(Nc1cc(C(F)(F)F)ccc1N1CCCCC1)c1ccncc1` came in with a cell viability of 1.01 ± 0.016.

`Cc1ccc(NC(=O)c2ccc(CN3CCN(C)CC3)cc2)cc1Nc1nc(-c2cccnc2)cs1` [Masitinib (AB1010)] came in with a cell viability of 1.05 ± 0.035. For `COc1nc(C)nc(Cl)c1NC1=NCCN1` [Moxonidine], the cell viability was 1.06 ± 0.04.

Consider `CCCC[C@@H](C=O)NC(=O)[C@H](CC(C)C)NC(=O)OCc1ccccc1` [Calpeptin], for which the cell viability worked out at 1.05 ± 0.066.

For the compound `Cc1ccc(S(=O)(=O)NC(=O)NN2CC3CCCC3C2)cc1` (centres undefined) [Gliclazide], the cell viability was 0.9637 ± 0.0073. In the case of `Cc1cc(Cn2cnc3c2CC(C(=O)O)N(C(=O)C(c2ccccc2)c2ccccc2)C3)ccc1N(C)C` (centres undefined) it was 1 ± 0.032. In the case of `O=c1c(O)c(-c2cc(O)c(O)c(O)c2)oc2cc(O)cc(O)c12` [Myricetin] it was 0.902 ± 0.043; in that of `C[C@H]1C[C@@H]2[C@H]([C@@H](O)C[C@@]3(C)[C@H]2CC[C@]3(O)C(=O)CO)[C@@]2(C)C=CC(=O)C=C12` [Methylprednisolone], 0.91 ± 0.017. Regarding `O=C1c2ccc(Nc3ccc(F)cc3F)cc2CCc2ccc(OC[C@H](O)CO)cc21` [Skepinone-L], the cell viability was 1 ± 0.012. Take `CCCNCC(O)COc1ccccc1C(=O)CCc1ccccc1` (centres undefined) [Propafenone HCl]: the cell viability was 0.997 ± 0.026. `NC(=O)C(c1ccccc1)(c1ccccc1)[C@@H]1CCN(CCc2ccc3c(c2)CCO3)C1` [Darifenacin HBr] yielded a cell viability of 1.04 ± 0.02. Take `COc1ccccc1OCC(O)CN1CCN(CC(=O)Nc2c(C)cccc2C)CC1` (centres undefined) [Ranolazine 2HCl]: the cell viability is 1.09 ± 0.084. Compound `COc1ccccc1OCC(O)CN1CCN(CC(=O)Nc2c(C)cccc2C)CC1` (centres undefined) [Ranolazine] had a cell viability of 0.973 ± 0.048.
